Data taken from paper PMC12136788.
This is one part of the list.

T1: UNK ZnF1-3 (human, UniProt Q9C0B0 31-174)
T1 sequence: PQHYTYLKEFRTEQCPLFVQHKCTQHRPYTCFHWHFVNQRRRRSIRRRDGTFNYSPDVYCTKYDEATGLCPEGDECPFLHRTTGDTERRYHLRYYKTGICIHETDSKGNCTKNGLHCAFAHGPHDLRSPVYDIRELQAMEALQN

B1: chr2:187373433:187373434:+_ENSG00000065548_ENST00000337859|hu_mus|FALSE|FALSE (ssRNA)
RNA: GGGAGUUCUACAGUCCGACGAUCUGACCUAGUUUUCAUCCUCAUCAUUCUUCUAAGUCAAGAGUGUUCAAUUCCUCUUCUAGUUCAUCCAGAUCUUCGCCAGUGAACAGGUUUUCAUCAACAGGAACAGCAUCGAUGGAUCCACAACAGAGGAUUGAGCAUCA
B2: chr1:25551555:25551556:-_ENSG00000117614_ENST00000236273|hu_hu|FALSE|FALSE (ssRNA)
RNA: GGGAGUUCUACAGUCCGACGAUCUAUGACCAUCCUGUCAAUUUCCUCUGUGGAAGGCACAUGUGUUCCAUGAAGAAGACUAUUGGAUGUUGGGAAAAACUCUUCUCCAUGUUUUUCUCUCAGUCUCUCAUAUGUUUCCAUGUCCAACAGAGGAUUGAGCAUCA
B3: 26887487_26892506_356_CDS_ENSG00000120159_ENST00000333916|human|control|control (ssRNA)
RNA: GGGAGUUCUACAGUCCGACGAUCAGUUGGCAAAAUAUAUUUAGUUUCCUGCUGCAAGGAGCCCGAGACGCUGGAAGAGUCGGUACUCCUCCGCUUCCGGCGCUCGCUGCGCUCCACGCUGCUCCCGCCCCAACAGCUGCCGCCCAACAGAGGAUUGAGCAUCA
B4: chr6:114270382:114270383:-_ENSG00000196591_ENST00000368632|hu_mus|motif|central (ssRNA)
RNA: GGGAGUUCUACAGUCCGACGAUCCAUCUCCAUCACUUUUGAGAUGAUAGGCUUAAAAAUUUGUCCAUAUGAUUCAUCAUCGGUACCAUCUCUCAUGGGAAAAUUGACAGCAUAGUAUUUUCCCUUUCCAGCACCAAUAUCCCUCAACAGAGGAUUGAGCAUCA
B5: chr1:185276735:185276736:-_ENSG00000116679_ENST00000392007|hu_mus|FALSE|FALSE (ssRNA)
RNA: GGGAGUUCUACAGUCCGACGAUCAAUAUAAGCGUCAACUUUAUUCAACAAACGGGAGUCUCCCAUACAACUUGCAAAAUUUCGGUAAGAGAUGCAGCUAGUAACAUCCAUUCUAGAUAGUAAAUAAUCUCCGCAGACCUGCUUCAACAGAGGAUUGAGCAUCA
B6: 42731334_42731454_4638_CDS_ENSG00000103994_ENST00000263805|human|control|control (ssRNA)
RNA: GGGAGUUCUACAGUCCGACGAUCCCAAAUAUCCUUUUUAGAUGGGCUGUCUGGUUUCUCUUCUCCUGAUUCUGAAGAAUCAAUGGCUACUACUUCUAACUGAGGAUUAGGAAUUUCUAGGACUUCCAGAGACGAGUCACUAUCCAACAGAGGAUUGAGCAUCA
B7: chr6:83927055:83927056:+_ENSMUSG00000030016_ENSMUST00000032088|mus_hu|motif|central (ssRNA)
RNA: GGGAGUUCUACAGUCCGACGAUCUGUAGCUUUUGCCUUAGGAGAAGAGACUAUAACAGCCUUGAUGCUUGGUUUACUGCGGGAUACAUCUGAUACAGCCAGAAUACUAGUUUUACUAGUUUCAUCAGGCUUAUUAGCCUGACCCAACAGAGGAUUGAGCAUCA
B8: chr1:39494447:39494448:+_ENSG00000168653_ENST00000372967|hu_mus|hu_hu_hu_mus_False|8_88 (ssRNA)
RNA: GGGAGUUCUACAGUCCGACGAUCGCACCGAGCGGCGUUCUUAUAGGGCUGUUCACCGCUUAGGAACAUAAAGUGCCGGUCCAGGCUGAUGCCCAGCUUUUUCUGUAUGUCAAGGAAAGGCAUGGCUGAUGCUCGUGCUUGUCACAACAGAGGAUUGAGCAUCA
B9: chr17:85413340:85413341:+_ENSMUSG00000061130_ENSMUST00000080217|mus_hu|FALSE|FALSE (ssRNA)
RNA: GGGAGUUCUACAGUCCGACGAUCUCAAUUUUACACUAUCUCAUAAAGGUGUAUGCAAAGGCCUUUUUAAAAAACAAGGCUAUCUGAAUAUAAUAAAACUAGUUUUCCAAGAUUCAAAUAACAAAACAGUUAUAUAAAUGCAUACAACAGAGGAUUGAGCAUCA
B10: chr1:214815296:214815297:+_ENSG00000117724_ENST00000366955|hu_hu|FALSE|FALSE (ssRNA)
RNA: GGGAGUUCUACAGUCCGACGAUCAAGUUUUAAUUCCUUAUUUCUUAGCAUAGCUUCUAAUUGCACCAACUGCGCAUUAUAACUAUCUAGAGAAAUUUCUUUAACUUCAAGAUCCAUCUGAGGUUUAAAAUUACAUUGAUUUCUCAACAGAGGAUUGAGCAUCA
B11: chr14:57575763:57575764:+_ENSMUSG00000021945_ENSMUST00000022511|mus_mus|motif|central (ssRNA)
RNA: GGGAGUUCUACAGUCCGACGAUCCACUGUUUUCAGGCCAAAAUACUUAGUGUUAAAGUAGAAUAGGGUAUUCAAAAGUGCGGCUGGAGAGUGGGAUCCUAGUUGUUUUAUCCUCCAGAGAUAGUCUUCUUCAACUCGAGAGAACAACAGAGGAUUGAGCAUCA
B12: chr11:69468634:69468635:+_ENSG00000110092_ENST00000227507|hu_hu|FALSE|FALSE (ssRNA)
RNA: GGGAGUUCUACAGUCCGACGAUCCAGAACACUAGUACAUAACAGAUUAAACAUACCCAAAACUUGAACAAAUUCCAGAAGCUAUUCCAAUCAUCCCGAAUGAGAGUCCUACAGGUACAACGCCGUGGUGGCACGUAAGACACACAACAGAGGAUUGAGCAUCA
B13: chr4:82449818:82449819:-_ENSMUSG00000028403_ENSMUST00000030110|mus_mus|motif|central (ssRNA)
RNA: GGGAGUUCUACAGUCCGACGAUCUGUAAUAAAUGUUUUGUUUUGUAGUAAAAUAGUAUUUUAAGUAAGUUUUUAUAAUGCGGACAAGAUAAGUUGCCAAAAUAAGGUUUAAAGUAAAAUACAUGAAACAGCUUAAACUAAUCGCAACAGAGGAUUGAGCAUCA
B14: chr8:101932682:101932683:-_ENSG00000164924_ENST00000353245|hu_mus|motif|central (ssRNA)
RNA: GGGAGUUCUACAGUCCGACGAUCGACAUGGAAGCAGUUUUAACACUGGCCCUUCUGAAGCCACAAUGUACCAAAAGUACGGUGCCAAACAUGUGUAACUCAUGUAAAAAUUCCACAUCCCAUAUUGGCCACCUCAAGAUGAAACAACAGAGGAUUGAGCAUCA
B15: chr16:57506169:57506170:-_ENSG00000125170_ENST00000340099|hu_mus|motif|central (ssRNA)
RNA: GGGAGUUCUACAGUCCGACGAUCCUGCCACACAUGUGAACAGUGGUUAUUUACAAGGUCUGUUCCCACAAAUCAGAACCCGGAAGUAUUAAAAAACAGAAACACGCAACAAAAGGUUUGAUGUGAAUAGAAAGAUAGCCCUUCCAACAGAGGAUUGAGCAUCA
B16: chr17:64801638:64801639:+_ENSG00000154229_ENST00000413366|hu_mus|hu_hu_hu_mus_False|68_78 (ssRNA)
RNA: GGGAGUUCUACAGUCCGACGAUCUAUAUAUAUAUAUACAUAUGUACACAUAUAUAGUAAGAGCCUAAUCUAUCACGUAAAGUAGCCAUUCAUUUUUAAAAUUACAUCUACAUUAAAAAAUUAAUAUAUCUGAUAGAGUGCCAGCAACAGAGGAUUGAGCAUCA
B17: 83067373_83067493_1321_CDS_ENSMUSG00000030036_ENSMUST00000032114|mouse|control|control (ssRNA)
RNA: GGGAGUUCUACAGUCCGACGAUCGAAAAGAGGGACAGGUGGAAACAGGGCAGGGUCCAUUUUCUGUUCAGACCCUUCCAUGCUAGUGUCUGGCAACACUAAACCCUGUCCAUAGAAGUAACCAAUCCCACCAAGAAGGCCACUCAACAGAGGAUUGAGCAUCA
B18: 3137973_3142276_2923_CDS_ENSG00000197386_ENST00000355072|human|control|control (ssRNA)
RNA: GGGAGUUCUACAGUCCGACGAUCUUGUCCUUGGUCACAUUUAUAAAACAGCUUUGGGACAAGCCUAAUUAGUGAUGCUGCGGCAACAUGUCGCACCCUGGGGUCUUCAUCUCCAAGCAAAUGGAUGACAACAUUAUUGAGCACCAACAGAGGAUUGAGCAUCA
B19: chr14:31888013:31888014:+_ENSMUSG00000042323_ENSMUST00000112095|mus_hu|FALSE|FALSE (ssRNA)
RNA: GGGAGUUCUACAGUCCGACGAUCGCUGAGUGCCGGUGAAAGAAGAAUCUCUCCAUUUUUGCAGAGUUCAUCACGAAUUUUAAUAAAAAACUGCUGAAGUUCUACUGCAUCUUCAUAUAUUUCUGAAUCUGUCCGAUUCAUCCUCAACAGAGGAUUGAGCAUCA
B20: chr1:74670475:74670476:+_ENSG00000254685_ENST00000370898|hu_hu|motif|central (ssRNA)
RNA: GGGAGUUCUACAGUCCGACGAUCGUCCUGUUGACAAAAAUUUCCAGGUCUACACACAGCAUUAAACUGAUACAUCUUUUCGGUGCUGGGCUUAUGAAGGAAACGAUGGCAAGACCUGUAUUCAAGGUCUCUAUGUUUUAAAUCCAACAGAGGAUUGAGCAUCA
B21: chr1:109605286:109605287:-_ENSG00000197780_ENST00000461096|hu_mus|hu_hu_hu_mus_True|8_98 (ssRNA)
RNA: GGGAGUUCUACAGUCCGACGAUCAAGUUUCAGAGUAUUCAGUGAUCACCUCUUUAAAUGCAAUUAUCCUUAUUAUAAGCUAAGCAGAAUAAUAAUUUAAUACCGUAAGUGAACUACACACAAAGCCGUGUAUUCAGAAAUGGUCAACAGAGGAUUGAGCAUCA
B22: 34756271_34756391_4016_CDS_ENSMUSG00000039967_ENSMUST00000047950|mouse|control|control (ssRNA)
RNA: GGGAGUUCUACAGUCCGACGAUCCUUGGGUUUUCUUUCCUUCCCAUUUGGGCCUCGACCACGGUCUUUUUUCACUUUCUUAGGUGUAGACGGUUGGGCACUGGUGCUACUGAAGUCAUCUGCAGAACUUACUUGGGAAGGAAACAACAGAGGAUUGAGCAUCA

molecular target: T1, UNK ZnF1-3; assay: nsRBNS (natural sequence RNA bind-n-seq); RBNS binding buffer (assumed for nsRBNS): 25 mM Tris pH 7.5, 150 mM KCl, 3 mM MgCl2, 0.01% Triton X-100, 500 ug/ml BSA, 20 U/ml SUPERase-In, 4 C; UNK is unkempt and MSI1 is Musashi-1; names of the RNAs are library labels; protein concentration not given here; high values mean tight binding

Row | Binder | binding signal [enrichment R]
1 | B1 | 1.19
2 | B2 | 0.576
3 | B3 | 0.864
4 | B4 | 0.681
5 | B5 | 1.3
6 | B6 | 0.565
7 | B7 | 0.743
8 | B8 | 0.939
9 | B9 | 0.954
10 | B10 | 0.513
11 | B11 | 1.29
12 | B12 | 2.08
13 | B13 | 2.34
14 | B14 | 0.995
15 | B15 | 2.77
16 | B16 | 1.31
17 | B17 | 0.894
18 | B18 | 1.38
19 | B19 | 0.906
20 | B20 | 1.24
21 | B21 | 0.66
22 | B22 | 0.322
